Laboratory results: publication PMC4336329 (PLoS ONE, 2015)
The campaign covered roughly 310,000 compounds. About 14,000 (4.5%) showed an effect of 50% or more. The effect is printed as a negative number. This is one part of the list.

molecular target: human ether-à-go-go-related gene (hERG) potassium channel (human, UniProt Q12809); assay: primary screen, population patch clamp on CHO cells stably expressing hERG
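Note: peak tail current of the secondary pulse compared with the same well before compound.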

Sequence of human ether-à-go-go-related gene (hERG) potassium channel (Q12809 whole entry, looked up): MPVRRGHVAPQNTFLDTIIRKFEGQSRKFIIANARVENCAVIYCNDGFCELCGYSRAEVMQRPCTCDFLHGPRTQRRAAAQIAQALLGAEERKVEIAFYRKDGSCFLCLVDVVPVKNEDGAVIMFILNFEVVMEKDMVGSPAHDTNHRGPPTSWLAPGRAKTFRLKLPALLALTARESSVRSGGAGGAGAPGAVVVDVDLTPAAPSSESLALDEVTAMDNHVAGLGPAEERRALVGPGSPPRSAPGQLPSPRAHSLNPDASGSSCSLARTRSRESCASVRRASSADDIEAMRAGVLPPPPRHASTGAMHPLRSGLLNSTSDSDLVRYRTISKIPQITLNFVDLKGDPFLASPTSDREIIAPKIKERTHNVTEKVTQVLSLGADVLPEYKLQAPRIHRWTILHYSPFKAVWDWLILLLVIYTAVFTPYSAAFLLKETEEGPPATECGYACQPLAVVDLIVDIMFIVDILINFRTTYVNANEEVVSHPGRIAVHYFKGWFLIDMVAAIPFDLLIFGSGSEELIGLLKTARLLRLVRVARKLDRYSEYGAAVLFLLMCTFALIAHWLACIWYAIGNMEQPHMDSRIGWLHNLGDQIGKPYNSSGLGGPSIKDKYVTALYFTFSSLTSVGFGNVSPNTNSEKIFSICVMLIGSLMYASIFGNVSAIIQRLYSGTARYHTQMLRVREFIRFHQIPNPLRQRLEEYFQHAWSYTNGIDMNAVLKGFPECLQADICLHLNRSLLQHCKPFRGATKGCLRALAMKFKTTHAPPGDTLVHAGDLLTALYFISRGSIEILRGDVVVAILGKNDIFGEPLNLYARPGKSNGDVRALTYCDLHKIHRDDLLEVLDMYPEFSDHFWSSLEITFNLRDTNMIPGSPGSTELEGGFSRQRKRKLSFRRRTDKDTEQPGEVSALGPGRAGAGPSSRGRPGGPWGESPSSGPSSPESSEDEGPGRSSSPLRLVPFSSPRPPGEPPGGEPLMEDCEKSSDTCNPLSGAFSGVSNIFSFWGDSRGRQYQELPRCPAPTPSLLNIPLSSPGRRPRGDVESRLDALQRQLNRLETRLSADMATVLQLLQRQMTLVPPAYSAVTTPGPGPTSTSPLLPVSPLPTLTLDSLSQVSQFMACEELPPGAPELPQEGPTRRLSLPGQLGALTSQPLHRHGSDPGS

Compound	hERG current change (%, negative = inhibition) at 10uM [%]
Cc1cc([N+](=O)[O-])cc([N+](=O)[O-])c1NCC(C)C	-18.7
CCOc1ccc(N(C)S(=O)(=O)c2csc(C(N)=O)c2)cc1	8.51
O=C(C(c1ccccc1)c1ccccc1)N1CCN(Cc2ccco2)CC1.O=C(O)C(=O)O	-9.93
CC(=O)NS(=O)(=O)c1ccc(NC(=O)/C=C/c2ccccc2Cl)cc1	8.86
COc1ccccc1C(=O)NC(CCSC)C(=O)OC(C)C(N)=O (stereo not drawn)	10.8
O=C(Cn1c(=O)oc2ccccc21)c1ccccc1	-5.11
Cc1ccc(S(=O)(=O)NCC(=O)N(CC(=O)NCc2ccccc2)CC2CCCO2)cc1 (stereo not drawn)	-6.78
Cc1cc(C)c(S(=O)(=O)N2CCOC2CNC(=O)C(=O)NCCN2CCOCC2)c(C)c1 (stereo not drawn)	9.75
O=C(Cc1ccccc1)CC1(O)C(=O)Nc2ccccc21 (stereo not drawn)	12
Cc1ccc(C)c(N2CCN(C(=O)CCS(=O)(=O)c3ccc4c(c3)oc(=O)n4C)CC2)c1	-48.6
Cc1ccc(-c2nc(CN3CCCCC3)cc(CN3CCCCC3)c2O)cc1.Cl	-62.5
Cc1nn(C)c(C)c1CN(Cc1nc(CCC(C)C)no1)C(C)C	13
CCCN1Cc2cccc(C(=O)Nc3ccc4c(c3)OCO4)c2C1=O	0.165
O=C(Cc1ccccc1)Nc1c(Cl)ccc2nsnc12	-2.82
COc1ccc(S(=O)(=O)N(CC(=O)N2CCOCC2)Cc2ccccc2)cc1	-16.5
O=Nc1ccc(O)c2ncccc12	1.37
COC(=O)c1nn(-c2ccccc2)c(Sc2ccc(OC)cc2)c1/C=N/O	-1.84
O=C(COC(=O)/C=C/c1ccccc1Cl)NCCNC(=O)COC(=O)/C=C/c1ccccc1Cl	8.67
COc1cccc(C(=O)OCCN2CCOCC2)c1.Cl	6.33
CN(C)c1ccc(-c2noc(C3CCN(S(=O)(=O)c4ccc(C(=O)O)cc4)CC3)n2)cc1	-1.13
CCN(CC)S(=O)(=O)c1cccc(C(=O)N[C@H](C(=O)OCC(N)=O)C(C)C)c1	4.04
CCOc1ccccc1NC(=O)Cc1c(F)cccc1Cl	1.89
CCC(C(=O)NCCCN1CCCC1=O)n1c2ccccc2c2nc(=O)cc(C)n21 (stereo not drawn)	12.2
O=C(CCc1nnc2ccc(N3CCC4(CC3)OCCO4)nn12)Nc1ccc(F)cc1	-40.2
